Test results from the supplement of paper PMC9151546.
Most values come without repeats; read them as rough.

Assays:
CHO-K1 [1] = assay: relative survival (nuclei to bead ratio vs DMSO control) (% of vehicle control); higher = more surviving cells
Procedure: (§1)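 Flow-cytometric in vitro micronucleus assay (Litron MicroFlow) in CHO-K1 cells in 96-well plates, 19 concentrations (4.5-200 µM, n=1 per concentration). Without S9, cells were exposed for 24 h and sampled at 48 h. With Aroclor 1254-induced rat liver S9, cells were exposed for 3-4 h and sampled at 27-28 h. Read-outs are %MN and %hypodiploid nuclei relative to nucleated events, and relative survival as the nuclei-to-bead ratio versus the 1% DMSO vehicle control (x100).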

CHO-K1 [2] = assay: micronucleus frequency (% of nucleated events); higher = more micronuclei (genotoxic)
CHO-K1 [3] = assay: hypodiploid nuclei frequency (% of nucleated events); higher = more hypodiploid events (aneugenic)
Procedure: as §1
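For hypodiploid nuclei frequency (% of nucleated events) in this document: hypodiploid nuclei gated on a flow cytometer with 488 nm excitation after SYTOX Green staining, cultures at 37 °C, positive controls vinblastine without S9 and cyclophosphamide with S9.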
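For micronucleus frequency (% of nucleated events) in this document: cells lysed with nuclei stained by SYTOX Green, then micronucleus-gated events counted against nucleated events by flow cytometry with 488 nm excitation.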
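For relative survival (nuclei to bead ratio vs DMSO control) in this document: Lysed-cell nuclei stained with SYTOX Green and counted against counting beads by flow cytometry at 488 nm excitation, with vinblastine (no S9) and cyclophosphamide (plus S9) as positive controls.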

Cc1cccc2ccccc12 [1-Methylnaphthalene]
Details | hypodiploid nuclei frequency, CHO-K1 [3] [%] | micronucleus frequency, CHO-K1 [2] [%] | relative survival, CHO-K1 [1]
concentration: 4.5 (µM), S9 metabolic activation: with S9, exposure time: 3-4 hours | 0.42 | 1.54 | 111
concentration: 4.5 (µM), S9 metabolic activation: without S9, exposure time: 24 hours | 0.64 | 1.06 | 125
concentration: 5.63 (µM), S9 metabolic activation: with S9, exposure time: 3-4 hours | 0.3 | 1.16 | 130
concentration: 5.63 (µM), S9 metabolic activation: without S9, exposure time: 24 hours | 0.96 | 1 | 118
concentration: 7.04 (µM), S9 metabolic activation: with S9, exposure time: 3-4 hours | 0.18 | 0.9 | 133
concentration: 7.04 (µM), S9 metabolic activation: without S9, exposure time: 24 hours | 0.4 | 1.24 | 91.9
concentration: 8.8 (µM), S9 metabolic activation: with S9, exposure time: 3-4 hours | 0.2 | 0.62 | 147
concentration: 8.8 (µM), S9 metabolic activation: without S9, exposure time: 24 hours | 0.5 | 1.18 | 130
concentration: 11 (µM), S9 metabolic activation: with S9, exposure time: 3-4 hours | 0.28 | 1.24 | 140
concentration: 11 (µM), S9 metabolic activation: without S9, exposure time: 24 hours | 0.48 | 1.2 | 144
concentration: 13.7 (µM), S9 metabolic activation: with S9, exposure time: 3-4 hours | 0.22 | 1.24 | 137
concentration: 13.7 (µM), S9 metabolic activation: without S9, exposure time: 24 hours | 0.5 | 1.34 | 104
concentration: 17.2 (µM), S9 metabolic activation: with S9, exposure time: 3-4 hours | 0.2 | 1.38 | 166
concentration: 17.2 (µM), S9 metabolic activation: without S9, exposure time: 24 hours | 0.48 | 1.06 | 123
concentration: 21.5 (µM), S9 metabolic activation: with S9, exposure time: 3-4 hours | 0.18 | 1.28 | 144
concentration: 21.5 (µM), S9 metabolic activation: without S9, exposure time: 24 hours | 0.28 | 1.2 | 126
concentration: 26.8 (µM), S9 metabolic activation: with S9, exposure time: 3-4 hours | 0.1 | 0.9 | 150
concentration: 26.8 (µM), S9 metabolic activation: without S9, exposure time: 24 hours | 0.56 | 1.06 | 135
concentration: 33.6 (µM), S9 metabolic activation: with S9, exposure time: 3-4 hours | 0.28 | 1.06 | 143
concentration: 33.6 (µM), S9 metabolic activation: without S9, exposure time: 24 hours | 0.64 | 1.36 | 161
concentration: 41.9 (µM), S9 metabolic activation: with S9, exposure time: 3-4 hours | 0.34 | 1.18 | 119
concentration: 41.9 (µM), S9 metabolic activation: without S9, exposure time: 24 hours | 0.6 | 1.62 | 174
concentration: 52.4 (µM), S9 metabolic activation: with S9, exposure time: 3-4 hours | 0.3 | 1.2 | 121
concentration: 52.4 (µM), S9 metabolic activation: without S9, exposure time: 24 hours | 0.86 | 1.76 | 142
concentration: 65.5 (µM), S9 metabolic activation: with S9, exposure time: 3-4 hours | 0.18 | 1.18 | 125
concentration: 65.5 (µM), S9 metabolic activation: without S9, exposure time: 24 hours | 0.5 | 1.38 | 155
concentration: 81.9 (µM), S9 metabolic activation: with S9, exposure time: 3-4 hours | 0.32 | 1.1 | 103
concentration: 81.9 (µM), S9 metabolic activation: without S9, exposure time: 24 hours | 0.78 | 1.5 | 151
concentration: 102 (µM), S9 metabolic activation: with S9, exposure time: 3-4 hours | 0.18 | 1.1 | 121
concentration: 102 (µM), S9 metabolic activation: without S9, exposure time: 24 hours | 0.68 | 2.1 | 157
concentration: 128 (µM), S9 metabolic activation: with S9, exposure time: 3-4 hours | 0.14 | 1.22 | 128
concentration: 128 (µM), S9 metabolic activation: without S9, exposure time: 24 hours | 1.08 | 1.32 | 105
concentration: 160 (µM), S9 metabolic activation: with S9, exposure time: 3-4 hours | 0.14 | 1.28 | 103
concentration: 160 (µM), S9 metabolic activation: without S9, exposure time: 24 hours | 0.64 | 2.76 | 139
concentration: 200 (µM), S9 metabolic activation: with S9, exposure time: 3-4 hours | 0.38 | 2.5 | 98.3
concentration: 200 (µM), S9 metabolic activation: without S9, exposure time: 24 hours | 1.04 | 2.74 | 135
